Data as given in ChEMBL document CHEMBL1201862, “PubChem BioAssay data set” (2004).

These molecules were tested on NCI-H322M (assay: NCI-60 cell line screen, 48 h).
In the case of `CCOC(=O)CCCOc1cc(-c2ccccc2F)nc2cc3c(cc12)OCO3`, the GI50 is reported as inactive: > 100 µM.
With `O=C1NNC(=O)c2ccccc2SSc2ccccc2C(=O)NNC(=O)c2ccccc2SSc2ccccc21` the GI50 was inactive: 27.5 µM.
With `O=C1C(c2c(O)[nH]c3ccc(I)cc23)=Nc2ccccc21` the GI50 was inactive: 4.22 µM.
`COc1cc2cc(C(=O)N3CC(CCl)c4c3cc(O)c3ccccc43)[nH]c2c(OC)c1OC` (stereo unspecified) was tested, and the GI50 was active: < 0.005 µM.
With `COC(=O)C(Cc1ccc(Oc2cc(CC(NC(=O)c3ccccc3)C(=O)OC)ccc2OC)cc1)NC(=O)c1ccccc1` (stereo unspecified) the GI50 was inactive: 23.6 µM.
For `O=C1c2ccccc2C(=O)C12CCc1ccccc12`, the GI50 was inactive: > 100 µM.
In the case of `CO/N=C1/C(n2[nH]c(=O)n(-c3ccccc3)c2=O)C2C=CC1n1c(=O)n(-c3ccccc3)c(=O)n12` (stereo unspecified), the GI50 is reported as inactive: > 100 µM.
For `N#Cc1nc(Nc2ccc(Cl)cc2)sc1N`, the GI50 was inactive: 36.8 µM.
For `CN(C(=O)C1=CCCCCC1)c1ccccc1I`, the GI50 was inactive: 39.4 µM.
For `NC(CCSCC(F)F)C(=O)O` (stereo unspecified), the GI50 was inactive: > 100 µM.
With `O=c1[nH]c(=O)n(C2OC(CO)C(O)C2O)c2ccsc12` (stereo unspecified) the GI50 was inactive: > 100 µM.
In the case of `Cc1ccc2c(=O)c(-c3nnsn3)c[nH]c2n1`, the GI50 is reported as inactive: > 100 µM.
With `C[n+]1c2ccc(Cl)cc2nc2cc(-c3ccccc3)ccc21` the GI50 was inactive: 1.84 µM.
`O=C1C(Cl)N(c2cccc(Cl)c2)C1c1c[nH]c2ccccc12` (stereo unspecified) was tested, and the GI50 was inactive: > 100 µM.
For `CC(=O)N1CCc2[nH]c3ccccc3c2CC1`, the GI50 was inactive: > 100 µM.
`Cc1cc2nc(C=C(C(F)(F)F)C(F)(F)F)sc2cc1C` was tested, and the GI50 was inactive: 2.13 µM.
`COc1ccccc1-c1cc(=O)c2ccccc2n1C1CC1` was tested, and the GI50 was inactive: 1.45 µM.
For `C[C@]12CC[C@H]3[C@@H](CCC4=C[C@@H](N5CCCC5)CC[C@@]43C)[C@@H]1C/C(=C\c1ccncc1)[C@@H]2O`, the GI50 was inactive: 12.5 µM.
In the case of `IC[P+]1(c2ccccc2)CCCC1`, the GI50 is reported as inactive: 23.7 µM.
With `c1ccc(C(CCN2CC3CCC(CC3)C2)c2ccccc2)cc1` the GI50 was inactive: 38.9 µM.
`O=C(Nc1cccc([N+](=O)[O-])c1)/C(=N\NC(=O)c1ccncc1)c1nc2ccc([N+](=O)[O-])cc2nc1O` was tested, and the GI50 was inactive: > 100 µM.
With `O=C1c2c(Br)sc(Br)c2C(NC(=O)C(F)(F)F)C1O` (stereo unspecified) the GI50 was inactive: 20.6 µM.
With `CCOC(=O)NC(Nc1cccc(C(F)(F)F)c1)(C(F)(F)F)C(F)(F)F` the GI50 was inactive: > 100 µM.
In the case of `C/C(=C1/CCC/C(=C(/C)c2ccccc2)C1=O)c1ccccc1`, the GI50 is reported as inactive: > 100 µM.
In the case of `O=C(c1ccco1)N(C(=S)N1CCN(c2ccccc2)CC1)c1ccccc1`, the GI50 is reported as inactive: > 100 µM.
In the case of `CCCP1(=O)C=C(C)C(=C(Cl)Cl)C(C)=C1` (stereo unspecified), the GI50 is reported as inactive: 49.9 µM.
For `Cc1ccc(S(=O)(=O)n2ccn3c(=O)cc(C)nc23)cc1`, the GI50 was inactive: > 10 µM.
For `CC/C(C)=C1\CCC(CN(C)C)C1=O` (stereo unspecified), the GI50 was inactive: > 100 µM.
`Cc1ccc(NC(=O)CCC(=O)C(C#N)c2ccccc2)cc1C` (stereo unspecified) was tested, and the GI50 was inactive: > 100 µM.
With `COc1cccc2c1C1(O)C2CCCC12OCCCO2` (stereo unspecified) the GI50 was inactive: > 100 µM.
For `N=C(N)/N=C(/C=C/c1ccccc1)CC1OC(=O)c2ccccc21` (stereo unspecified), the GI50 was inactive: > 100 µM.
`CC1CC/C(=C\c2ccc(F)cc2)C2=C1C(c1ccc(F)cc1)N1C(=O)CSC1=N2` (stereo unspecified) was tested, and the GI50 was inactive: > 100 µM.
With `COc1ccc(NC(=S)Nc2cc(C)cc(C)n2)cc1` the GI50 was inactive: > 100 µM.
With `CO/C=C(/C(=O)OC)c1ccccc1[C@H]1C[C@@H]1c1ccc(OC)cc1` the GI50 was inactive: 48.2 µM.
In the case of `COc1cc(Nc2c3ccccc3nc3ccccc23)ccc1NS(C)(=O)=O`, the GI50 is reported as inactive: 5.79 µM.
`O=C(O)C(Br)Cc1ccc2c(c1)OCO2` (stereo unspecified) was tested, and the GI50 was inactive: > 100 µM.
`CCCCCC(=O)OC[n+]1cccc(-c2c(COC(=O)NC(C)C)c(COC(=O)NC(C)C)c3n2CCC3)c1` was tested, and the GI50 was inactive: > 71.6 µM.
`Cc1cc(C)c(S(=O)(=O)N(CCCCN)OCCCN)c(C)c1` was tested, and the GI50 was inactive: 15.5 µM.
`COc1ccc2c(c1)CCc1c-2n(CCN2CCOCC2)c2ccc(OC)cc12` was tested, and the GI50 was inactive: > 100 µM.
In the case of `Cc1c(OCc2cccc3ccccc23)ccc2c(=O)cc(SCCN3CCOCC3)oc12`, the GI50 is reported as inactive: > 100 µM.
`O=C(CC(C(=O)c1ccco1)c1ccsc1)c1ccco1` (stereo unspecified) was tested, and the GI50 was inactive: > 100 µM.
With `O=C(O/N=C1/CCCC/C1=C\c1ccccc1)c1ccc(Cl)c(Cl)c1` the GI50 was inactive: 25.9 µM.
In the case of `CC(C(=O)N1C(=O)N(C(=O)C(C)C(O)c2ccccc2)C2CCCCC21)C(O)c1ccccc1` (stereo unspecified), the GI50 is reported as inactive: > 100 µM.
With `CNc1ccc2c(c1)[C@@]1(C)c3ccccc3[C@@H](C2)N1C` the GI50 was inactive: 34.2 µM.
`CN(C)CCNC(=O)c1cccc2[nH]c(-c3ccccc3)nc12` was tested, and the GI50 was inactive: 16.3 µM.
`CCC1C(=O)C(O)[C@H]2[C@@H]3C(O)CC4=CC(=O)CC[C@]4(C)[C@H]3CC[C@]12C` (stereo partly specified) was tested, and the GI50 was inactive: > 50 µM.
In the case of `CC(C)(C)CI`, the GI50 is reported as inactive: 42 µM.
In the case of `COc1ccc(C(=O)/C=C/c2ccc(OCCSCCCCCCCCCCSCCOc3ccc(/C=C/C(=O)c4ccc(OC)c(OC)c4)cc3)cc2)cc1OC`, the GI50 is reported as inactive: > 100 µM.
With `OC1CCN(c2c3ccccc3nc3ccccc23)CC1` the GI50 was inactive: 27.1 µM.
With `CC1CN(c2ccc(Cl)cc2)CC(C)OC(=O)O1` (stereo unspecified) the GI50 was inactive: > 100 µM.
In the case of `Cc1n[nH]c(=O)n1/N=C/c1ccco1`, the GI50 is reported as inactive: > 100 µM.
In the case of `CCOC(=O)C1CSCCSC1`, the GI50 is reported as inactive: > 100 µM.
With `Oc1ccc2ccccc2c1/N=N\c1cccc2ccccc12` the GI50 was inactive: > 100 µM.
`CNC(=O)O/N=C1\N(C)CN(c2ccccc2)C12CCN(CCCC(=O)c1ccc(F)cc1)CC2` was tested, and the GI50 was inactive: 45.7 µM.
`COc1ccc(/C=C2\N/C(=N/N)N=C2Cl)cc1` was tested, and the GI50 was inactive: > 100 µM.
With `Cc1cc(OCc2nn(CN3CCN(C)CC3)c(=S)n2/N=C/c2ccc(-c3ccc(Cl)cc3Cl)o2)ccc1Cl` the GI50 was inactive: 77.6 µM.
`CC(=O)N1C(OC(C)C)CC(C)N1c1ccccc1` (stereo unspecified) was tested, and the GI50 was inactive: > 10 µM.
For `CCOC(=O)c1csc(CCCCCCc2nc(C(=O)OCC)cs2)n1`, the GI50 was inactive: > 100 µM.
With `O=[N+]([O-])c1ccc(N2N=C(c3c(O)ccc4ccccc34)CC2c2ccc(Cl)cc2)c([N+](=O)[O-])c1` (stereo unspecified) the GI50 was inactive: 22.2 µM.
`O=C(Oc1ccc(C(c2c(O)c3ccccc3oc2=O)c2c(O)c3ccccc3oc2=O)cc1)c1ccc(C(=O)c2ccccc2)cc1` was tested, and the GI50 was inactive: 27.4 µM.
`COc1ccc(C(OCC2OC(n3cnc4c(=O)n(Cc5ccccc5[N+](=O)[O-])nnc43)C(O)C2O)(c2ccccc2)c2ccc(OC)cc2)cc1` (stereo unspecified) was tested, and the GI50 was inactive: 21.3 µM.
In the case of `Cc1ccc(NC(=O)CCC/C(CC(=O)c2ccc(Br)cc2)=N/NC(=O)CC#N)cc1`, the GI50 is reported as inactive: > 100 µM.
In the case of `CCCCCCCCCCCCC(O)C1CCC(C(O)CCCCCCC(O)CCCCCCCC2=CC(C)OC2=O)O1` (stereo unspecified), the GI50 is reported as inactive: 53.7 µM.
With `CO/N=C(\C)c1cccc(Nc2nc3ccccc3c3occc23)c1` the GI50 was inactive: 13.6 µM.
In the case of `COC(=O)N1CCc2c(nc(N(C)CCO)[nH]c2=O)C1`, the GI50 is reported as inactive: > 100 µM.
With `CC(=O)N1CC(=O)NC1=S` the GI50 was inactive: > 100 µM.
`Cc1cccc(C)c1NC(=O)CCc1nnc2s/c(=C\c3ccc(Cl)cc3)c(=O)n12` was tested, and the GI50 was inactive: > 100 µM.
With `O=[PH](O)c1ccccn1` the GI50 was inactive: > 100 µM.
For `C[C@@]12C=CC3C/C(=N\C(N)=S)C=C(CCCC4OCCO4)[C@]3(CC1)C2` (stereo partly specified), the GI50 was inactive: 15.1 µM.
With `CCOc1ccccc1NC(=O)CCc1nnc2s/c(=C\CCc3ccccc3)c(=O)n12` the GI50 was inactive: > 100 µM.
`CC(=O)O[C@H]1CC[C@@]2(C)C(=CC[C@@H]3[C@@H]2CC[C@]2(C)C(=N/O)/C(=C/c4ccc([N+](=O)[O-])cc4)C[C@@H]32)C1` was tested, and the GI50 was inactive: 17 µM.
In the case of `CC(=O)c1cccc(NC2C(N)C(NC(=O)N(C)C)(C(C)O)C(C)(O)C2(O)COC(=O)c2c(C)cccc2O)c1` (stereo unspecified), the GI50 is reported as active: 0.0124 µM.
In the case of `COC1CCCc2c(OC(C)=O)ccc(OC(C)=O)c21` (stereo unspecified), the GI50 is reported as inactive: > 100 µM.
In the case of `COc1ccc(N2CCOCC2)cc1`, the GI50 is reported as inactive: > 100 µM.
With `O=[N+]([O-])c1ccc(/C=N/n2c(CO)nc3ccccc32)o1` the GI50 was inactive: 10.5 µM.
With `C=CCn1c(-c2ccc(Cl)cc2)cs/c1=N\c1ccccc1OC` the GI50 was inactive: > 100 µM.
For `O=C1c2ccccc2C2(c3ccc(Cl)cc3)N[C@H]3CCCC[C@@H]3N12` (stereo partly specified), the GI50 was inactive: 96.2 µM.
In the case of `N#CSC1CCCCNC1=O` (stereo unspecified), the GI50 is reported as inactive: 16.3 µM.
For `CCCCCCN1C(=O)CC(=O)N(CCCCCC)S1(=O)=O`, the GI50 was inactive: 37.7 µM.
With `C=CCC1C(=O)CC2(C)CC(=O)C(CC=C)C12C` (stereo unspecified) the GI50 was inactive: > 100 µM.
`O=C(Nc1ccccc1F)c1cc2ccc(O)cc2o/c1=N\c1ccccc1F` was tested, and the GI50 was inactive: 2.16 µM.
`CC(Cc1ccc(Cl)cc1Cl)NO` (stereo unspecified) was tested, and the GI50 was inactive: > 100 µM.
With `C=CCN(N=O)C(=O)NCCCCC(NC(C)=O)C(=O)NCc1ccccc1` (stereo unspecified) the GI50 was inactive: > 100 µM.
For `N#CC(NCCc1ccccc1)c1ccccc1` (stereo unspecified), the GI50 was inactive: > 100 µM.
With `COc1cc2cc(C(=O)Nc3cc4n(n3)-c3ccccc3C4)[nH]c2c(OC)c1OC` the GI50 was inactive: 6.56 µM.
In the case of `CCO/C=C1\N=C(c2ccccc2Br)OC1=O`, the GI50 is reported as inactive: > 100 µM.
In the case of `CC1=NC(=O)CNN1C1=NNC2(C(=O)N1)c1ccccc1-c1ccccc12`, the GI50 is reported as inactive: > 100 µM.
`CCOC(=O)/C(O)=C(/C(=O)OC)c1ccc(Cl)cc1` was tested, and the GI50 was inactive: > 100 µM.
`COC(=O)C1=C(O)C(O)=C(C(=O)OC)C1` was tested, and the GI50 was inactive: > 100 µM.
`COc1ccc2cc3n(c(=O)c2c1)CCc1c-3cc(OC)c(OC)c1OC` was tested, and the GI50 was inactive: > 100 µM.
In the case of `NC(=O)c1cccc([N+](=O)[O-])c1`, the GI50 is reported as inactive: > 100 µM.
`C=C1C(NC)CCC23CC24CCC2(C)C(C(C)=O)C(O)CC2(C)C4CCC13` (stereo unspecified) was tested, and the GI50 was inactive: > 100 µM.
For `Brc1cccc[n+]1-c1ccc2cc(-[n+]3ccccc3Br)ccc2c1`, the GI50 was inactive: > 100 µM.
With `O=C(O)c1cc(=O)c2c(OCC(O)COc3cccc4oc(C(=O)O)cc(=O)c34)cccc2o1` the GI50 was inactive: > 100 µM.
In the case of `COc1ccc2nc(-c3ccc(O)cc3)sc2c1`, the GI50 is reported as inactive: > 100 µM.
For `COc1cc(OC)c2[nH]c3c(O)c(-c4c(C)cc5c([nH]c6c(OC)cc(OC)cc65)c4O)c(C)cc3c2c1`, the GI50 was inactive: 8.38 µM.

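Cells were grown in 96-well plates and exposed to each compound for 48 hours at five concentrations; endpoints were interpolated linearly between bracketing concentrations, or set to the highest concentration if not reached. At the GI50, growth is halved.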 Activity calls are given as the source filed them. Rule as the data show it: active = GI50 up to about 1.1 µM and inactive = higher.
